Reference: PMC4336329 (PLoS ONE, 2015)
The campaign covered roughly 310,000 compounds. About 2,200 (0.71%) showed an effect of 50% or more. The effect is printed as a negative number. This is one part of the list.

Each compound was assayed against human ether-à-go-go-related gene (hERG) potassium channel (human, UniProt Q12809) (assay: primary screen, population patch clamp on CHO cells stably expressing hERG).
Sequence of human ether-à-go-go-related gene (hERG) potassium channel (Q12809 whole entry, looked up): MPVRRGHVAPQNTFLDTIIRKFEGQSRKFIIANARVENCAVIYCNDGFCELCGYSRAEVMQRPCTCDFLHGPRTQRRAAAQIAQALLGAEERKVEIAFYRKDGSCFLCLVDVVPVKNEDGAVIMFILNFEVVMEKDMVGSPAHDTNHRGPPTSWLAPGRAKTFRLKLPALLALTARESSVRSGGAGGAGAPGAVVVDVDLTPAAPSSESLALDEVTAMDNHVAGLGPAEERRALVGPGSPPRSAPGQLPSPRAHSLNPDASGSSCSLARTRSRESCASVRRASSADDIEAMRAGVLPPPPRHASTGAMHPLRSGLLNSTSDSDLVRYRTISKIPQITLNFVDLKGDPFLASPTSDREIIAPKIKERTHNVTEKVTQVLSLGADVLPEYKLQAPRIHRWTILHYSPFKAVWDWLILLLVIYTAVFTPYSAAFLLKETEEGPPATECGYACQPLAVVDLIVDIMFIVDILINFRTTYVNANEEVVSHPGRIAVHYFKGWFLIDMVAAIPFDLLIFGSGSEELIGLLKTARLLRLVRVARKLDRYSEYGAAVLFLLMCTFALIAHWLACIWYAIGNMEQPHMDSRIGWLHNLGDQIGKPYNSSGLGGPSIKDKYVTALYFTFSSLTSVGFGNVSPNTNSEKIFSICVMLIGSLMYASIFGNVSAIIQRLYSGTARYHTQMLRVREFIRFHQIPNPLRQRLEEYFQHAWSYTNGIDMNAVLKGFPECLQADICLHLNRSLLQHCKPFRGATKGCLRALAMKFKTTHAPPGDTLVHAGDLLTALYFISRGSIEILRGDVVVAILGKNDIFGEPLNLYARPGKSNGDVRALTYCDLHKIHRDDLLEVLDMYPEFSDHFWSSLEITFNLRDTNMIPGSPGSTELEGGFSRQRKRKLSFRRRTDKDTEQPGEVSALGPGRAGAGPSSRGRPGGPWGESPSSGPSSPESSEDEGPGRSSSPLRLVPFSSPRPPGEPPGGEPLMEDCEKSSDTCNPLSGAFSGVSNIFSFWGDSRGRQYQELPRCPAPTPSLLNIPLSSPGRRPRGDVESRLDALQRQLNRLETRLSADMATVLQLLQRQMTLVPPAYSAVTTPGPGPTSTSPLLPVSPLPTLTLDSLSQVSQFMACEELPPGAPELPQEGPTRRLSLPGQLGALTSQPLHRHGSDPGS

In order of rising “hERG current change (%, negative = inhibition) at 1uM” value:
1. COc1ccccc1NC(=O)CN1CCN(Cc2ccccc2)CC1  -45.8%
2. Cc1ccc(Nc2c(-c3cccnc3)nc3ccc(Br)cn23)cc1  -16%
3. Cc1cccc(N2CCN(S(=O)(=O)c3c(C)[nH]c(C)c3C(=O)N3CCCC3)CC2C)c1 (stereo not shown)  -15.9%
4. Cc1nn(C(=O)CCCn2cc([N+](=O)[O-])cn2)c(C)c1Cl  -11.9%
5. Cc1ccc2c(c1)c1c(n2CC(O)CN2C(=O)CNC2=O)C(=O)CCC1 (stereo not shown)  -9.64%
6. Cc1ccc2c(c1)Cc1nc3ccccc3nc1-2  -8.19%
7. COc1cccc(C(=O)Nc2ccc3nc(N4CCN(c5ncccn5)CC4)cc(C)c3c2)c1OC  -4.55%
8. COc1ccc(CN2CCCCCC2)c(C)c1C  -4.27%
9. Cc1noc(C)c1COc1cccc(C(=O)OC(C)C#N)c1 (stereo not shown)  -0.615%
10. Oc1ccccc1N=Cc1sc2ccccc2c1Cl  0.441%
11. Cc1onc(-c2ccccc2)c1C(=O)N(CC(C)C)c1c(N)n(CC(C)C)c(=O)[nH]c1=O  1.54%
12. CCC(C)c1ccc(OCCn2ccnc2)cc1.O=C(O)C(=O)O (stereo not shown)  1.76%
13. O=C(CNC(=O)c1ccccn1)N/N=C/c1ccc2c(c1)OCO2  2.26%
14. O=C(CN1C(=O)c2cccnc2Oc2ccc(Cl)cc21)NCCc1ccccc1  2.5%
15. Cc1csc(CNC(=O)CC2C(=O)NCCN2Cc2ccc(F)cc2Cl)n1 (stereo not shown)  2.69%
16. COc1ccc(OC)c(NC(=O)CCNS(=O)(=O)c2ccc3c(c2)oc(=O)n3C)c1  2.95%
17. O=C(O)/C=C/C(=O)Nc1ccccc1-c1ccccc1  3.52%
18. COc1ccccc1NS(=O)(=O)c1cccc(NC(=O)Nc2cccc(Cl)c2)c1  4.06%
19. COC(=O)C1=CN(CC2CCCO2)C=C(C(=O)OC)C1c1cc(OC)c(OC)c(OC)c1 (stereo not shown)  4.28%
20. O=C(NNC(=O)c1ccc(Br)s1)c1cccc(S(=O)(=O)N2CCCC2)c1  5.4%
21. COc1ccc(NC(=O)c2cc(S(=O)(=O)Nc3ccc(OC)cc3)cs2)cc1  6.33%
22. Cc1cc(NC(=O)CSC2=NS(=O)(=O)c3cc(F)ccc3N2)no1  6.52%
23. Cn1c(SCC(=O)Nc2ccccc2)nnc1-c1ccc(NC(=O)CCc2ccccc2)cc1  6.68%
24. Cc1cccc(CCNC(=O)c2cccc3c2C(=O)N(C2CCCCC2)C3)c1  6.77%
25. Cc1ccc2c(c1)N(CC(=O)NCCCN1CC(C)CC(C)C1)C(=O)c1cccnc1O2 (stereo not shown)  6.81%
26. Cc1ccc2oc(C(=O)Nc3nnc(C)s3)c(C)c2c1  6.82%
27. O=C(Cn1c2ccc(F)cc2c2nc3n(c(=O)c21)CCS3)Nc1ccccc1C(F)(F)F  6.84%
28. O=C(Nc1ccc(CN2CCOCC2)cc1)c1ccc(-c2ccc(Cl)cc2Cl)o1  6.91%
29. Cc1ccc2c(CC(=O)NC3=NCCS3)coc2c1  7.23%
30. COc1ccc(-n2nnnc2Sc2ccc(S(=O)(=O)N3CCOCC3)cn2)cc1  7.98%
31. CCC(c1nnnn1CCOC)N1CCN(c2cccc(C(F)(F)F)c2)CC1.Cl (stereo not shown)  8.44%
32. CC(=O)Nc1c(Cl)cnn(-c2ccccc2)c1=O  8.8%
33. O=C(CN1C(=O)C2C3C=CC(C4CC34)C2C1=O)Nc1cccc2ncccc12 (stereo not shown)  8.97%
34. N#C/C(=C\c1cccc(Oc2ccccc2)c1)C(=O)N1CCOCC1  9.1%
35. COc1ccc(Nc2oc(-c3ccc(Cl)cc3)nc2C#N)cc1  9.41%
36. CN1C(=O)OC(C)(CCc2ccccc2)C1(C)O (stereo not shown)  9.42%
37. CCOC(=O)Cn1nc(C)c(NC(=O)CCc2ccccc2)c1C  9.68%
38. COc1ccc(-n2nc(C(=O)NCC(=O)N3CCC(C)CC3)c3ccccc3c2=O)cc1Cl  11%
39. c1ccc(-n2cc(CN3CCC(N4CCOCC4)CC3)c(-c3ccc4c(c3)OCO4)n2)cc1  11.1%
40. O=C(C1=C[C@@H](c2csc3ccccc23)C[C@@H](OCc2ccc(CO)cc2)O1)N1CCN(Cc2ccccc2)CC1  11.2%
41. COc1ccc(C)cc1NC(=O)c1sc2ncn(CC(=O)N3CCCCC3)c(=O)c2c1C  12%
42. COc1cccc(OC(C)c2ccnc3nc(/N=C/N(C)C)nn23)c1 (stereo not shown)  12%
43. O=C(CCc1c[nH]c2ccccc12)NCCc1ccc2c(c1)OCCO2  12%
44. Cc1noc(C)c1COC(=O)C1(c2cccc(F)c2)CCCC1  12.1%
45. Cc1cccc(NC(=O)C[n+]2ccc(N(C)C)cc2)c1.[Cl-]  12.4%
46. COC(=O)c1ccc(N2CCN(CC(=O)c3ccc(-c4ccccc4)cc3)CC2)c([N+](=O)[O-])c1  13.2%
47. COCCCNc1ncnc2ccc(C)cc12  13.4%
48. NC(=O)c1ncc(C(F)(F)F)cc1Cl  14.1%
49. Cc1cc(NC(=O)CSc2nc(N)c(NC(=O)c3ccco3)c(=O)[nH]2)no1  14.2%
50. Cc1ccccc1C(=O)N[C@H](C(=O)Nc1ccc(Cl)c(Cl)c1)C(C)C  14.7%
51. COc1ccccc1N1CCN(C(=O)c2ccc3c(c2)NC(=O)C(CSCc2ccccc2C)N3)CC1 (stereo not shown)  16.4%
52. COC(=O)c1cc(OC)c(OC)cc1NC(=S)Nc1cccc(C(C)=O)c1  16.5%
53. Cc1ccc(CS(=O)(=O)CCC(=O)NCCC2=CCCCC2)cc1  17.9%
54. CC(C)CN(CC(C)C)C(=O)CN1c2cccc3cccc(c23)S1(=O)=O  17.9%
55. O=C(Nc1cccc2ccccc12)NC1CCS(=O)(=O)C1 (stereo not shown)  18.3%
